Source: PubChem BioAssay AID1347073 (National Center for Advancing Translational Sciences (NCATS), 2019)
Among all 45,000 compounds or so, about 200 (0.44%) were called active. Roughly 7% stayed inconclusive and do not appear here. Calls come from the whole dose curve; as a rule, active = well fitted activation curve with a large enough effect; inconclusive = small, poorly fitted or top-dose-only effect; inactive = no such curve, though single readings can be large or run the other way. Some of the results follow.

Assay: qHTS of TDP-43 Inhibitors: NCGC Sytravon Library Screen; note: 0% is about no effect; nearly all actives have a fitted effect of over 55% in size
Details: yeast TDP-43 toxicity rescue, BacTiter-Glo growth, 24 h; series mostly up to 46.1 µM; growth rescue (activation): at the top concentration
Method in brief: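 TDP-43-expressing yeast, pregrown in raffinose, seeded at OD600 0.02 in galactose medium with compound for 24 hr at 30 deg C. Growth read by BacTiter-Glo luminescence, so rescue of toxicity appears as activation.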

Structure (SMILES) | growth rescue (activation)
O=C(COC(=O)Cc1ccc(Br)cc1)NCc1cccs1 | inactive: 10.6%
COC(=O)C1=C(C)Nc2nc3ccccc3n2C1c1ccccc1F (stereo not drawn) | inactive: 10.2%
CC(Sc1nnc2ccccn12)C(=O)Nc1ccc2c(c1)OCO2 (stereo not drawn) | inactive: -3.49%
Cc1ncsc1C(=O)Nc1cccc(C(F)(F)F)c1 | inactive: 22.7%
CC(=O)N(C)c1ccc(NC(=O)c2ccc([N+](=O)[O-])cc2Cl)cc1 | inactive: -6.74%
CC1CC(C)CN(S(=O)(=O)c2ccc3c(c2)n(C)c(=O)c(=O)n3C)C1 (stereo not drawn) | inactive: 37.9%
CCOc1ccccc1NC(=O)CC1Nc2cc(C)c(C)cc2NC1=O (stereo not drawn) | inactive: -8.1%
CC(C)NC(NC(=O)Cc1ccccc1)C(Cl)(Cl)Cl (stereo not drawn) | inactive: 4.53%
CN1CCN(C(=O)CNC(=O)c2cccs2)CC1 | inactive: 1.57%
CCCCOc1ccc(-c2nc(/C=N/c3nccs3)c(O)o2)cc1 | inactive: 31.2%
COCCCNc1nnc(Cc2ccccc2)c2ccccc12 | inactive: -2.65%
COc1cccc(N2CCN(C(=O)c3ccc(CS(=O)c4ccccc4C)o3)CC2)c1 (stereo not drawn) | inactive: 0.119%
CS(=O)(=O)N1CCc2cc(C(=O)N3CCCC3)ccc21 | inactive: 1.38%
Cc1ccc(/C=N/NC(=O)C(=O)N/N=C/c2ccc(C)o2)o1 | inactive: 12.4%
COC(=O)c1[nH]c2ccc(Cl)cc2c1NC(=O)CN1CCC(C(N)=O)CC1 | inactive: 10.9%
Cc1ccc(/C=N/NC(=O)COc2ccccc2-c2ccccc2)cc1 | inactive: 22.5%
CCn1cc(C(=O)O)c(=O)c2cc(F)c(N3CCN(C(=S)NC(=O)c4ccccc4C)CC3)cc21 | inactive: 26.2%
CN(C)CCNC(=S)Nc1ccc(-c2nc3ccccc3[nH]2)cc1 | inactive: -0.502%
O=C(CN1C(=O)CCS(=O)(=O)c2ccccc21)NCc1ccc2c(c1)OCO2 | inactive: 21.7%
COc1ccc(C(=O)c2c(C)c(CCC#N)n3ccccc23)c(OC)c1 | inactive: -12.1%
CC(C)(C)NCCOc1ccc2ccccc2c1 | inactive: 2.35%
COc1cccc(NC(=O)N2CCC(N3CCCCC3)CC2)c1 | inactive: 0.412%
O=C(NNc1ccccc1Br)C(=O)n1ccc2ccccc21 | inactive: -1.54%
CC(C(=O)NC(N)=O)N1C(=O)NC(c2ccccc2)(c2ccccc2)C1=O (stereo not drawn) | inactive: -0.957%
CCCOc1ccc(F)cc1-c1cc(C(=O)Nc2cc(OC)ccc2OC)[nH]n1 | inactive: 1.91%
O=C(Cc1c2ccccc2nc2ccccc12)c1ccccc1 | inactive: 0.373%
CCOc1ccc(S(=O)(=O)N(C)c2ccc(OCC(=O)Nc3nccs3)cc2)cc1 | inactive: 21.7%

Structure (SMILES) | growth rescue (activation)
CCc1nnc(SCC(=O)Nc2ccc(N3CCOCC3)cc2)n1C | inactive: -14.9%
O=C(COc1ccc(S(=O)(=O)Nc2ccc(Cl)cc2)cc1)N1CCOCC1 | inactive: 4.76%
Cc1cc(NC(=O)CCC(=O)N(c2ccccc2F)C(C(=O)NC2CCCC2)c2ccccc2)no1 (stereo not drawn) | inactive: 7.29%
OC1CCCN(CC(O)c2ccccc2)C1 (stereo not drawn) | inactive: -2.49%
CN(CC(=O)Nc1cccc2ccccc12)C(=O)/C=C/c1cccs1 | inactive: 20%
CCOC(=O)C1(CC2CCCCO2)CCN(Cc2cc(F)ccc2-n2cccn2)CC1 (stereo not drawn) | inactive: -2.6%
CC(=O)N1CCN(c2cc3c(cc2F)c(=O)c(C(=O)O)cn3C2CC2)CC1 | inactive: 19.1%
CN(C)C1(CN=Cc2cc(Cl)cc([N+](=O)[O-])c2O)CCCCC1 | inactive: 16.3%
COc1cccc(NC(=O)CSc2nnc(-c3ccco3)c(-c3ccco3)n2)c1 | inactive: 6.86%
COc1cccc(CN(C)C(=O)CSc2nc3ccccc3[nH]2)c1OC | inactive: -5.03%
COc1cc(C(=O)NNC(=O)/C=C/c2ccco2)cc(OC)c1OC | inactive: 18.7%
CC(C)(C)NC(=O)C(c1ccc(O)cc1)N(C(=O)CCC(=O)Nc1nccs1)c1cccc(F)c1 (stereo not drawn) | inactive: 10.8%
Fc1ccc(CSc2nncn2NCc2ccc3c(c2)OCO3)cc1 | inactive: 7.83%
Cc1cccc(NC(=O)CSc2nnc(-c3ccco3)c(-c3ccco3)n2)c1C | inactive: 21.7%
O=C(NCc1cccs1)c1cccn2c(=O)c3sccc3nc12 | inactive: 4.93%
COC(=O)c1cc(NC(=O)CC2CCCC2)cc(C(=O)OC)c1 | inactive: 19.2%
Cc1c(C(=O)O)oc2c1-c1nn(Cc3ccc(Cl)cc3)cc1CC2 | inactive: 10.3%
Cc1ccc(C(=O)N[C@H](C(=O)OCC(=O)NC2CCS(=O)(=O)C2)C(C)C)cc1 (stereo partly drawn) | inactive: 11.9%
COc1ccccc1-c1nnc(SCC(=O)NCc2cccs2)n1N | inactive: 7.43%
O=C(COc1ccccc1Cl)NCCNC(=O)c1ccccn1 | inactive: 4.23%
COc1ccccc1C(=O)Nc1c2c(nn1-c1cccc(C)c1C)CS(=O)C2 (stereo not drawn) | inactive: 25.4%
Cc1ccc(OCCSc2nc(C)c(Cc3ccccc3)c(=O)[nH]2)cc1 | inactive: 4.88%
COc1cccc(C(C(=O)NCC2CCCO2)N(C(=O)Cn2nnc3ccccc32)c2ccccc2C(C)=O)c1OC (stereo not drawn) | inactive: -12.8%
CC(C)c1onc(C(=O)Nc2sc3c(c2C#N)CCC3)c1[N+](=O)[O-] | inactive: 11%
Cc1nn(-c2ccccc2)c(C)c1C(=O)OC(C)C(=O)Nc1ccc(C(N)=O)cc1 (stereo not drawn) | inactive: 9.96%
O=C(CO/N=C/c1ccc(OC(F)F)cc1)N1CCc2ccccc21 | inactive: 5.64%
